Measured values published in article PMC4460075, “ULK2 Ser 1027 Phosphorylation by PKA Regulates Its Nuclear Localization Occurring through Karyopherin Beta 2 Recognition of a PY-NLS Motif” (PLoS ONE, 2015).
Numbering of substitutions follows the chain as printed. Results are given in words; binding and its absence hold for the method and conditions named. Binding seen in cells or lysates may run through a third protein. Some entries that bind do so weakly or less than the wild type. For part of these data: Sequences can lack the tags named with a protein.

By UniProt entry, the sequences of proteins in these tests, tags left out.
UniProt Q92973: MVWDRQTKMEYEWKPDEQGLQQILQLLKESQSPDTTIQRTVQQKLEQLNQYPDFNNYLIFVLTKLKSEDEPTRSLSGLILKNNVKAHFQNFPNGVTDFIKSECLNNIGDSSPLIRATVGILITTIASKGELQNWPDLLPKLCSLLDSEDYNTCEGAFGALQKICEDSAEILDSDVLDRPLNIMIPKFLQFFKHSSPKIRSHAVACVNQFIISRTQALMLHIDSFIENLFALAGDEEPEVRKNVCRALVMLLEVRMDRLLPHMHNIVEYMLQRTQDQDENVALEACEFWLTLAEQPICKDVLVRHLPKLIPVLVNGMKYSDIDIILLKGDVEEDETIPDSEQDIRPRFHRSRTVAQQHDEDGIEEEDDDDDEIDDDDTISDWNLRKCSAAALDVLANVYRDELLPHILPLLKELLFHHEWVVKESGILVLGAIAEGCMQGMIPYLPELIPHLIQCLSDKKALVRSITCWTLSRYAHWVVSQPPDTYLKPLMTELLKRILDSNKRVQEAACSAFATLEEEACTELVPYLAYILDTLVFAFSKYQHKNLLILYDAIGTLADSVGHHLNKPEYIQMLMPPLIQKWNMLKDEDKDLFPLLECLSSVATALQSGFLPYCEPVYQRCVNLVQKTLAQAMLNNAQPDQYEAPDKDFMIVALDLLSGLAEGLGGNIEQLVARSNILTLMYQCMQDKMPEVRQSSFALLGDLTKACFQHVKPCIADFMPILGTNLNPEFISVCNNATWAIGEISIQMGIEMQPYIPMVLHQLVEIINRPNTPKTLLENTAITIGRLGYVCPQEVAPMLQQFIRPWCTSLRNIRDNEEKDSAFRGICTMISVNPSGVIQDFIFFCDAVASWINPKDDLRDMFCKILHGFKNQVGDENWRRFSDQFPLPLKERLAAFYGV

What was measured:
[1] = molecular target: T1, Uncoordinated 51-like kinase 2 (ULK2), endogenous (human (endogenous in HEK293)) (UniProt Q8IYT8); assay: co-IP; endogenous proteins of HEK293 lysate; IP with anti-ULK2 and blot for Kapβ2, and IP with anti-Kapβ2 and blot for ULK2; Protein A-Sepharose; control IP with an unrelated anti-EGFP antibody
T1 sequence: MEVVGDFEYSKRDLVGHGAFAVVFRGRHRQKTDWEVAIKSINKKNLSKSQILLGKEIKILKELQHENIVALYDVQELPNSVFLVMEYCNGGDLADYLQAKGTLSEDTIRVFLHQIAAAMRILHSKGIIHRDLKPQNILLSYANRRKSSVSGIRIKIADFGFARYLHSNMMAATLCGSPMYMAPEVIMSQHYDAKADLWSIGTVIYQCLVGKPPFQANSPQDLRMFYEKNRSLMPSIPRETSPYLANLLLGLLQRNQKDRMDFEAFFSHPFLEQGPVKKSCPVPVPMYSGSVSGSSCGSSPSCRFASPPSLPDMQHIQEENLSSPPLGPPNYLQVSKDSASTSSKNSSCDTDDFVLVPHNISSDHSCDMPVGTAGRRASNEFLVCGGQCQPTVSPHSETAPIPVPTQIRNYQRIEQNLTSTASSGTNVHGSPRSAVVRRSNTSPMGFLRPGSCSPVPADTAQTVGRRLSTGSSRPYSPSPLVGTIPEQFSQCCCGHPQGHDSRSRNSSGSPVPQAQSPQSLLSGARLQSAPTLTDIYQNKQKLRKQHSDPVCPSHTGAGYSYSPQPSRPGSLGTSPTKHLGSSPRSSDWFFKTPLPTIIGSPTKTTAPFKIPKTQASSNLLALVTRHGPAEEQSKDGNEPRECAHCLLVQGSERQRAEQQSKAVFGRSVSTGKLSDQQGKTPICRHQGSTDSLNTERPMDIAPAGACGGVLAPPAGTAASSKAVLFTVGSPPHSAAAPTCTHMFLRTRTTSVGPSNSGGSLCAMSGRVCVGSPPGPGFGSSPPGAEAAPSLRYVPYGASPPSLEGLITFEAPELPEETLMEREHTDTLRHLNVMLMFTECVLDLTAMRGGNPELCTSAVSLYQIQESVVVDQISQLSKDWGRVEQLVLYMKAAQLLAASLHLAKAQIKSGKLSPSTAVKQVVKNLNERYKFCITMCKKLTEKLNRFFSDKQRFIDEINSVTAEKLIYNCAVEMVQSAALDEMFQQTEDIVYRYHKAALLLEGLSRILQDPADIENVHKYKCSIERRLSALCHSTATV

[2] = molecular target: T2, EGFP-ULK2 PY-NLS mutant (P794A) (human) (UniProt Q8IYT8); assay: co-IP; HEK293 cells transfected with EGFP-ULK2 WT, P242A or P794A, lysed after 48 hours; IP with rabbit anti-EGFP antibody; blot for endogenous Kapβ2 (Fig 2B, Fig 5A)
T2 sequence: T1 sequence with P794A

[3] = molecular target: T3, EGFP-ULK2 WT (human) (UniProt Q8IYT8); assay: as above
T3 sequence: T1 sequence

“karyopherin beta 2 (Kapβ2), endogenous (from UniProt Q92973 1-898)” was tested, and the binding [1] was “binds”, the binding [2] was “no binding” and the binding [3] was “binds”.
